Measurements: the supplement of paper PMC10126150
Sequences with one replicate were seen in a single cluster, so their values are uncertain.

Test system: ATP
Assay: switch fluorescence ratio, 500 uM ATP over buffer (Cy3 cluster intensity, sum of 5 cycles each) (fold (ratio)); higher = stronger signal-on switching upon ATP binding; sequences stand for … in TCGTCGGCAGCGTCAGATGTGTATAAGAGACAGTTTTTTTTTTTTTTTTTTTTTTTTT…TC
Conditions: aptamer strand: ATP DNA aptamer (quencher-CACCTGGGGGAGTATTGCGGAGGAAGG + anchor), 100 nM annealed; ATP concentration: 500 uM; one replicate
Outline: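 After annealing to 100 nM quencher-labelled ATP aptamer, Cy3-labelled switching-strand clusters on a modified Illumina MiSeq flow-cell were imaged in selection buffer. A second image followed after 15 min with 500 uM ATP at 22 °C, and five such buffer/ATP cycles were done, each separated by NaOH stripping and re-annealing. The fluorescence ratio, averaged per switch-domain sequence, is summed target-cycle over summed buffer-cycle Cy3 intensity per cluster, with clusters outside 100-1000 RFU excluded.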
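Note: ATP exposure 15 min at 22 °C before imaging.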

TTGAGTAACC
switch fluorescence ratio: 1.06

TCCTGACACG
switch fluorescence ratio: 1.09

GTTGTCAATA
switch fluorescence ratio: 1.02

GATATCATAA
switch fluorescence ratio: 1.02

CTTATATTTA
switch fluorescence ratio: 1.01

GCTGTGAGCG
switch fluorescence ratio: 1.02

GATGATTGAG
switch fluorescence ratio: 1

AGGGCGCTTA
switch fluorescence ratio: 0.988

TGTCACGGTG
switch fluorescence ratio: 1.04

TCAGACTCTA
switch fluorescence ratio: 1.01

TGAGGAGTTC
switch fluorescence ratio: 0.994

CCTCAATCGG
switch fluorescence ratio: 1.36

CCTACTATTG
switch fluorescence ratio: 1.03

CTGTTGGGCG
switch fluorescence ratio: 0.954

GGATGAATTT
switch fluorescence ratio: 1.03

TGTAATTGAG
switch fluorescence ratio: 0.993

CGGGGTACAG
switch fluorescence ratio: 1.01

GTGCTCCTTG
switch fluorescence ratio: 1

CGCTTACTGG
switch fluorescence ratio: 1.25

TGTTAGGAAG
switch fluorescence ratio: 0.965

TTATGGCGAG
switch fluorescence ratio: 0.99

GCTGGCTGCA
switch fluorescence ratio: 1.02

TCCGTGTGAG
switch fluorescence ratio: 0.958

AAGGGGCGAC
switch fluorescence ratio: 1.05

GGAATCACGG
switch fluorescence ratio: 1.01

ACCTAGTGGC
switch fluorescence ratio: 1.07

GGCGGACCCG
switch fluorescence ratio: 1.01

AAGTAATCT
switch fluorescence ratio: 0.991

TCGCTTGAGT
switch fluorescence ratio: 0.99

TGGTCGTGCG
switch fluorescence ratio: 0.97

GACACTCTGG
switch fluorescence ratio: 0.958

CGGATAGGAC
switch fluorescence ratio: 1.05

CTCATGTTTT
switch fluorescence ratio: 0.976

GCGTGGACGT
switch fluorescence ratio: 1.05

ACATAGACCC
switch fluorescence ratio: 1.11

AACATCCCGT
switch fluorescence ratio: 1.01

GGGAAAGCAT
switch fluorescence ratio: 1.1

CGGGAAGGGT
switch fluorescence ratio: 0.966

TATGTATCAA
switch fluorescence ratio: 0.975

GCACCCGACA
switch fluorescence ratio: 1.15

ACATTACCAT
switch fluorescence ratio: 1.04

GATGGGTAAC
switch fluorescence ratio: 1.04

CCGATCAGGT
switch fluorescence ratio: 0.998

TGATTATACG
switch fluorescence ratio: 0.961

GACGTTCATT
switch fluorescence ratio: 1.05

AGTGTTTAC
switch fluorescence ratio: 0.968

GGAATTTGCC
switch fluorescence ratio: 0.983

GCTGTTCAGT
switch fluorescence ratio: 0.978

TTCACCCGA
switch fluorescence ratio: 1

GTCTGGTCAG
switch fluorescence ratio: 1.04

AGAGAGCGGG
switch fluorescence ratio: 1

TATTTTAAGG
switch fluorescence ratio: 0.983

AAGATGGCTC
switch fluorescence ratio: 1.05

CCCGTGCCCC
switch fluorescence ratio: 1.17

AAATTGTCTC
switch fluorescence ratio: 1.05

GACGTTTGAG
switch fluorescence ratio: 0.981

CTCAGGAGCG
switch fluorescence ratio: 0.993

CGGAGATGCT
switch fluorescence ratio: 1.04

CTCGGTCTTA
switch fluorescence ratio: 1.01

ATTCTAATCA
switch fluorescence ratio: 1.01

CTACGTCCTC
switch fluorescence ratio: 1.23

TTGACATAAG
switch fluorescence ratio: 1.05

CCGTGACTAG
switch fluorescence ratio: 1.02

GTGATTGAGC
switch fluorescence ratio: 1.09

ACCAATCGGC
switch fluorescence ratio: 1.04

AATAAAACCA
switch fluorescence ratio: 0.996

GGGTTACGGA
switch fluorescence ratio: 1

TAACAGT
switch fluorescence ratio: 1.01

ACAGAGGTCA
switch fluorescence ratio: 1.01

GGCTGGTAGG
switch fluorescence ratio: 1.01

TTGGATTCCT
switch fluorescence ratio: 1.04

CTCCACGTGT
switch fluorescence ratio: 1.07

AGGCGTCTGA
switch fluorescence ratio: 1.01

GCGTATGTGA
switch fluorescence ratio: 1

CCGGCCACCA
switch fluorescence ratio: 1.16

CTAGATACTA
switch fluorescence ratio: 0.98

AACTTGATGG
switch fluorescence ratio: 0.978

CTATCCATT
switch fluorescence ratio: 0.996

GCTCCCTACG
switch fluorescence ratio: 1.7

GTTCAAGACT
switch fluorescence ratio: 1.04

CGATTCGGC
switch fluorescence ratio: 0.974

TTGGCTATAA
switch fluorescence ratio: 1.03

TGGAAGTCAA
switch fluorescence ratio: 1.03

TAGGAGACTG
switch fluorescence ratio: 1.11

AGCTGAAGCA
switch fluorescence ratio: 1.06

CTTGACACCT
switch fluorescence ratio: 1.25

CAGGTCCCGA
switch fluorescence ratio: 0.985

TGGTCGTGGT
switch fluorescence ratio: 0.993

AAATGATCGC
switch fluorescence ratio: 1.01

TGACTTGGTA
switch fluorescence ratio: 0.941

TACGGCAG
switch fluorescence ratio: 1

TTGCGTCGCT
switch fluorescence ratio: 1.02

CGGATGCCCT
switch fluorescence ratio: 0.965

AGCCCGGTGA
switch fluorescence ratio: 1.48

TCAGCCCATT
switch fluorescence ratio: 1.01

CAATATAACC
switch fluorescence ratio: 0.962

GCGCCTTATT
switch fluorescence ratio: 0.986

AAAAGAGCCG
switch fluorescence ratio: 1.15

TCACAGTAGT
switch fluorescence ratio: 1.08

GATGGGATAG
switch fluorescence ratio: 1.04

TAATGCTTTC
switch fluorescence ratio: 1.02

GGGGGTTTCT
switch fluorescence ratio: 0.997

AATATCGTTA
switch fluorescence ratio: 0.978

TCAACCTTCG
switch fluorescence ratio: 2.09

TCATCTTCGT
switch fluorescence ratio: 1.02

ACTGATTAAC
switch fluorescence ratio: 1.06

TGATCTGGAA
switch fluorescence ratio: 0.997

GGCCGTAACA
switch fluorescence ratio: 0.983

GGTGCAACGC
switch fluorescence ratio: 0.986

ACGGCCCAAA
switch fluorescence ratio: 1.05

TGGCATCGCG
switch fluorescence ratio: 1.08

CAACGAATGG
switch fluorescence ratio: 1.05

AATGCTGGAA
switch fluorescence ratio: 1.02

CGTGGGCGAG
switch fluorescence ratio: 0.989

CCCCTCGGCT
switch fluorescence ratio: 1.08

CGGCTAGTAC
switch fluorescence ratio: 3.56

TACCTGCAGG
switch fluorescence ratio: 1.02

ATGTGATTTA
switch fluorescence ratio: 1.01

ACCGTTTCGG
switch fluorescence ratio: 0.963

GCACGGTCAC
switch fluorescence ratio: 1.31

ACTGGTAGGG
switch fluorescence ratio: 0.997

GTGGGAAA
switch fluorescence ratio: 1.02

CGTTCGTTGA
switch fluorescence ratio: 1.03

TTGAGGTT
switch fluorescence ratio: 0.95

TGGGAGTATG
switch fluorescence ratio: 0.993

TTGGCGGTGT
switch fluorescence ratio: 1.04

CCTAGGGTGA
switch fluorescence ratio: 1.08

TGCATAGGC
switch fluorescence ratio: 2.07

ATGCGTGCCC
switch fluorescence ratio: 1.02

TTTTGGCCCA
switch fluorescence ratio: 0.967

GAGTAAAAGC
switch fluorescence ratio: 1.02

TTAAGGCTTG
switch fluorescence ratio: 0.997

TATGAGCGGA
switch fluorescence ratio: 0.952

CATCTGCAGG
switch fluorescence ratio: 1.99

TAGCACTTCA
switch fluorescence ratio: 1.1

CTACTAGCCA
switch fluorescence ratio: 1.05

TTCGGACAGT
switch fluorescence ratio: 1.04

AAGCATGGTT
switch fluorescence ratio: 0.991

TGTTTGTTA
switch fluorescence ratio: 0.98

GGTCAGGAGC
switch fluorescence ratio: 0.952

AATCTAGTGA
switch fluorescence ratio: 1.02

TGATGTTGCT
switch fluorescence ratio: 0.991

CTGTTGGTG
switch fluorescence ratio: 1.03

AAAGGACTCT
switch fluorescence ratio: 1.03

TTGTAGTTT
switch fluorescence ratio: 1.01

CGTATTGTGA
switch fluorescence ratio: 0.983

TGTGAGCTGG
switch fluorescence ratio: 0.988

TGCCGTTAAC
switch fluorescence ratio: 1.01

TAACAGCTA
switch fluorescence ratio: 1.01

CTAACGTGGG
switch fluorescence ratio: 0.945

AAGTGAGAAG
switch fluorescence ratio: 1.01

TTGGGTCGCG
switch fluorescence ratio: 1.01

AGATTGGCTG
switch fluorescence ratio: 0.979

GTTGGGATCC
switch fluorescence ratio: 1

AGGTTAGACA
switch fluorescence ratio: 1.02

CGGCCGTGCT
switch fluorescence ratio: 0.971

CTACCGTAGC
switch fluorescence ratio: 3.44
